# Results as given in PubChem BioAssay AID624418 (National Center for Advancing Translational Sciences (NCATS), 2012).
# Among all 410,000 compounds or so, about 530 (0.13%) were called active. Inconclusive results, whose numbers are uncertain, are shown with a selection of clear calls. The call rests on the fitted dose curve; in most records, active means well fitted inhibition curve with a large enough effect; inconclusive means small, poorly fitted or top-dose-only effect, or another doubt; inactive means no such curve, though single readings can be large or run the other way. Where the call is inconclusive, the potency comes from a doubtful curve fit.
# Test: qHTS of GLP-1 Receptor Inverse Agonists: Cytotox Screen
# Settings: HEK293 cAMP-luciferase reporter cells, luminescence, 24 h; series mostly up to 38.3 µM
# Method in brief: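 Luminescence readout: signal drop marks cytotoxicity. Plated cells grew 12 h at 37 °C, 5% CO2, received 23 nL compound for 24 h, then got luciferase reagent, read after 12 min at RT.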
# Potency means the concentration at half of the fitted maximal effect.
row,SMILES,Potency
1,Cc1ccc(-c2cnc(N)n2C)cc1C,"inconclusive: 2 µM [inhibitor, partial curve, poor fit]"
2,O=c1oc2c(CN3CCOCC3)c(O)ccc2c2ccccc12,inactive
3,COc1ccc(C(CNC(=O)c2cccc(NS(=O)(=O)c3ccc(Br)cc3)c2)N(C)C)cc1 (configuration not stated),"inconclusive: 5.01 µM [inhibitor, partial curve, poor fit]"
4,Cc1cc(C)cc(NC(=S)Nc2cccc3cnccc23)c1,inactive
5,CN(C(=S)Nc1ccc(Oc2ccccc2)cc1)C1CCCCC1,"inconclusive: 10 µM [inhibitor, partial curve]"
6,COc1ccc(-c2nnc(SC(C)C(=O)Nc3nccs3)n2Cc2ccccc2)cc1OC (configuration not stated),"inconclusive: 4.47 µM [inhibitor, partial curve]"
7,C[C@H](CO)N1C[C@H](C)[C@@H](CN(C)Cc2ccc(-c3ccccc3)cc2)Oc2c(NC(=O)c3ccncc3)cccc2C1=O,"inconclusive: 10 µM [inhibitor, single point]"
8,CC(=O)Oc1ccc2ccccc2c1C(NC(=O)Cc1ccccc1)c1ccccc1 (configuration not stated),"inconclusive: 11.2 µM [inhibitor, single point]"
9,COc1cc2c(cc1NC(=S)Nc1ccccc1C)oc1ccccc12,"inconclusive: 28.2 µM [inhibitor, single point]"
10,CN(C(=O)CN1C(=O)c2cccc(N)c2C1=O)C1CCCCC1,inactive
11,O=C(CSc1ccc2nnc(-c3ccccn3)n2n1)N1CCN(c2ccccc2)CC1,"inconclusive: 1 µM [inhibitor, full curve, poor fit]"
12,CC1CCN(S(=O)(=O)c2ccc3c(c2)N(CC(=O)NCCCN2CC(C)CC(C)C2)C(=O)CS3)CC1 (configuration not stated),"inconclusive: 7.94 µM [inhibitor, partial curve, poor fit]"
13,Cc1ccc(NC(=O)CSCC(=O)OC(C)C(=O)Nc2ccc(S(N)(=O)=O)cc2)c(C)c1 (configuration not stated),inactive
14,Cc1cc(C)c2cc(C(=O)N3CCC(Cc4ccccc4)CC3)[nH]c2c1,"inconclusive: 28.2 µM [inhibitor, single point]"
15,CCCC[C@@H](CNC)NC[C@H](Cc1ccc(O)cc1)NCCc1ccc(OCC)cc1,"inconclusive: 28.2 µM [inhibitor, single point]"
16,COc1cc2nc(N(C)C)nc(N)c2cc1OC,"inconclusive: 28.2 µM [inhibitor, single point]"
17,O=C(Cn1cc(S(=O)(=O)N2CCN(c3ccccc3F)CC2)c2ccccc2c1=O)NCCCN1CCCCCC1,"inconclusive: 28.2 µM [inhibitor, single point]"
18,CC1CCN(S(=O)(=O)c2ccc3c(ccn3CC(=O)NCc3ccc(N(C)C)cc3)c2)CC1,inactive
19,CN(C)CCCNc1nc2cc(-c3cccc(C(F)(F)F)c3)sc2c(=O)n1C,"inconclusive: 20 µM [inhibitor, single point]"
20,Cc1ccc(C(=O)O/N=C(\N)Cc2cccs2)c(Cl)c1,"inconclusive: 10 µM [inhibitor, partial curve]"
21,O=C(O)c1ccc(NC(CSCc2ccc(F)cc2)C(=O)O)c([N+](=O)[O-])c1 (configuration not stated),"inconclusive: 28.2 µM [inhibitor, single point]"
22,CC(=O)Nc1cccc(NC(=O)Nc2cccc(F)c2)c1,"inconclusive: 10 µM [inhibitor, single point]"
23,CC(C)(C)Nc1nc(NN)nc(NC(C)(C)C)n1,"inconclusive: 11.2 µM [inhibitor, single point]"

row,SMILES,Potency
1,COc1ccc(S(=O)(=O)N2CCCC2C(=O)Nc2nc3c(s2)CCCC3)cc1 (configuration not stated),inactive
2,Cc1ccc(NC(=O)C2CCN(C(=O)c3cnn(-c4ccccc4)c3-n3cccc3)CC2)cc1,inactive
3,C/C=C/c1ccc(OCCCCN2CCN(CC)CC2)c(OC)c1,inactive
4,O=C(NCc1ccccc1Cl)c1ccc(NC(=O)c2nsc3ccccc23)cc1,inactive
5,CNc1sc(C(=O)c2ccc(F)cc2)c(N)c1-c1nc2ccccc2s1,active: 11.2 µM
6,COc1cc(C(=O)NCC(c2cccs2)N2CCc3ccccc32)cc(OC)c1OC (configuration not stated),inactive
7,Cc1cc(NC(=O)CSc2nnc(-c3ccccc3Cl)o2)no1,"inconclusive: 11.2 µM [inhibitor, single point]"
8,O=C(Cc1ccc(S(=O)(=O)N2CCOCC2)s1)N1CCN(c2cccc(C(F)(F)F)c2)CC1,inactive
9,Cc1c(Cl)cccc1NC(=S)NCCc1ccc(Cl)cc1,"inconclusive: 3.55 µM [inhibitor, full curve]"
10,Cc1cc(Br)ccc1NC(=O)c1coc(=O)c2ccccc12,inactive
11,COc1ccc(C/C(C)=N/NC(=S)Nc2ccc(Cl)cc2)cc1,"inconclusive: 10 µM [inhibitor, single point]"
12,Cc1ccc(Nc2nc(NCc3ccccc3)nc3ccsc23)c(C)c1,"inconclusive: 28.2 µM [inhibitor, single point]"
13,C=CCn1c(SCC(=O)NNC(=S)Nc2ccccc2)nnc1-c1ccccc1,"inconclusive: 28.2 µM [inhibitor, single point]"
14,CCN(CC)CC(O)COCCC12CC3CC(CC(C3)C1)C2 (configuration not stated),"inconclusive: 12.6 µM [inhibitor, single point]"
15,CSc1ccc(C(=O)N2CCc3ccc(NC(=O)c4ccccn4)cc3C2)cc1,"inconclusive: 28.2 µM [inhibitor, single point]"
16,COc1cc2c(cc1OC)CN(c1nc(-c3cccnc3)nc3ccccc13)CC2,"inconclusive: 11.2 µM [inhibitor, single point]"
17,Cc1ccc2cccc(OCC(=O)Nc3cccc(S(=O)(=O)N4CCCC4)c3)c2n1,"inconclusive: 22.4 µM [inhibitor, single point]"
18,Cc1ccccc1OCC(=O)Nc1ccc(N2CCN(C(=O)c3ccco3)CC2)cc1,"inconclusive: 12.6 µM [inhibitor, single point]"
19,Cc1cc2oc3ccc(NCCC4CCCN4C)cc3c(=O)c2cc1C (configuration not stated),"inconclusive: 2 µM [inhibitor, partial curve, poor fit]"
20,CS/C(=C/[N+](=O)[O-])Nc1cccc2c1C(C)CC2(C)C (configuration not stated),"inconclusive: 11.2 µM [inhibitor, single point]"
21,Nc1nc(N)c(-c2cccc(C(F)(F)F)c2)c(Cc2cccc(C(F)(F)F)c2)n1,"inconclusive: 28.2 µM [inhibitor, single point]"
22,O=C(C[C@H]1C[C@H](C(=O)N2CCOCC2)[C@@]2(CCC3CCCC3)c3[nH]c4cc(-c5ccco5)ccc4c3CCN2C1=O)NCCc1ccccn1,"inconclusive: 11.2 µM [inhibitor, single point]"
23,COc1cc(-c2nnc(NC(=O)CCS(=O)(=O)c3ccccc3)o2)cc(OC)c1OC,"inconclusive: 12.6 µM [inhibitor, single point]"

row,SMILES,Potency
1,O=C(COc1ccccc1)NC(=S)Nc1ccc(Br)cn1,"inconclusive: 28.2 µM [inhibitor, single point]"
2,NS(=O)(=O)c1ccc(N=Nc2c(O)c(C(=O)O)cc3ccccc23)cc1,"inconclusive: 11.2 µM [inhibitor, partial curve, poor fit]"
3,Cc1ccc(-c2ccc(CN3C(CC(C)C)C(=O)N(Cc4cn(CCC5OCCO5)nn4)CCS3(=O)=O)cc2)cc1 (configuration not stated),"inconclusive: 11.2 µM [inhibitor, single point]"
4,CCS(=O)(=O)c1nc(S(=O)(=O)c2ccc(C)cc2)c(N2CCCC2)s1,inactive
5,COc1cc(/C=C(\C#N)C(=O)NCC2CCCO2)ccc1OC(=O)c1ccco1 (configuration not stated),"inconclusive: 31.6 µM [inhibitor, single point]"
6,Cc1cccc(OCCNC(=S)NC(=O)c2cncc(Br)c2)c1,inactive
7,O=C(CN1CCN(c2nc(-c3ccc(F)cc3)cs2)CC1)NCc1ccc2c(c1)OCO2,inactive
8,Cc1cccc(-n2cc(-c3ccc([N+](=O)[O-])cc3)[nH]c2=S)c1,inactive
9,Cc1ccc(NS(=O)(=O)c2ccc(OCC(=O)NCc3ccccn3)cc2)cc1,"inconclusive: 28.2 µM [inhibitor, single point]"
10,CCOC(=O)COc1ccccc1/C=C\[N+](=O)[O-],"inconclusive: 3.55 µM [inhibitor, full curve]"
11,COc1cc(C(=O)N/N=C(\c2ccccc2)c2ccccn2)cc(OC)c1OC,"inconclusive: 2.24 µM [inhibitor, full curve]"
12,Oc1ccc(/C=N/Nc2cccc3cccnc23)c(O)c1,"inconclusive: 28.2 µM [inhibitor, single point]"
13,Brc1ccc(CN2CCc3nc(Nc4ccccc4)ncc3C2)s1,inactive
14,CCCN1C(=O)SC(CC(=O)Nc2ccc(C)cc2)C1=O (configuration not stated),"inconclusive: 7.94 µM [inhibitor, partial curve, poor fit]"
15,COc1cc(/C=C2/SC(=S)N(Cc3ccccc3)C2=O)ccc1O,"inconclusive: 22.4 µM [inhibitor, single point]"
16,Clc1ccc(C2=NNC(=NCc3ccccc3)SC2)cc1,inactive
17,CCOC(=O)NC(=O)c1cn(CCN(C)C)c(=O)[nH]c1=O,"inconclusive: 10 µM [inhibitor, partial curve, poor fit]"
18,CCOc1cccc(-c2nn3c(-c4ccco4)nnc3s2)c1,"inconclusive: 11.2 µM [inhibitor, partial curve, poor fit]"
19,CN(c1ccc(C(=O)COC(=O)C2CC2)cc1)S(C)(=O)=O,inactive
20,CN(C(=O)c1cccn(Cc2ccccc2)c1=O)c1ccccc1,"inconclusive: 10 µM [inhibitor, single point]"
21,O=Nc1c(O)n(Cc2ccc(Cl)cc2Cl)c2ccccc12,"inconclusive: 31.6 µM [inhibitor, single point]"
